Data on 172 sequences can be found in PMC6212790.

Some of the results follow. At the low end of the ranking, values are background and their order means little.

The target in this assay is T1, GST-Rok (full length) (UniProt O34857).
T1 sequence: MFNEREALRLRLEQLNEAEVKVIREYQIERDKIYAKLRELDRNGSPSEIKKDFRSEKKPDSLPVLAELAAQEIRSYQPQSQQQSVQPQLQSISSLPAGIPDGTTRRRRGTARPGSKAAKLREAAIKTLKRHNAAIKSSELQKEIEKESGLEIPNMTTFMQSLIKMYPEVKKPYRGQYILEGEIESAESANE
In words: protein binding microarray.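 Also: rank score from −0.5 (least bound) to 0.5 (best bound).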 The settings on record: Rok is a gene silencer of Bacillus subtilis; high values mean tight binding; most listed sequences are background and not binding sites; double strand, one strand shown.
Sequence AGGCTCAC yielded a binding signal of -0.184 E-score. In the case of GAAGTCTC it was -0.271 E-score; in that of CTATTTCC, 0.18 E-score. With AAGACACA the figure was 0.0109 E-score; with GGGTGCCA, -0.243 E-score. Sequence CGCCCTTA showed a binding signal of -0.158 E-score. In the case of ATCATATA it was 0.215 E-score.

As for CAAATCGG, the binding signal is -0.0828 E-score. In the case of GGTAGTGA it was 0.156 E-score. With ATGACGGC the figure was -0.119 E-score. ACCGGTGG: the binding signal was -0.196 E-score. With AGAATTGC the figure was 0.132 E-score; with ATCCGACG, -0.0128 E-score. In the case of GATAGGGC it was -0.0329 E-score; in that of ACGCTTAC, -0.00582 E-score. In the case of GGCAAGTA it was -0.00745 E-score; in that of CCAAGAGA, -0.0918 E-score. Sequence CTGGGTTA displayed a binding signal of -0.143 E-score. CTGTGCCA came in with a binding signal of -0.131 E-score.

Regarding GTGTGGTA, the binding signal came out at 0.213 E-score. In the case of GGGTACCC it was -0.368 E-score.

AGAGCGAG returned a binding signal of -0.0881 E-score.

GTGTCACA had a binding signal of 0.0367 E-score. The sequence CTTCCTGA came in with a binding signal of 0.0315 E-score. With AATGGATG the figure was 0.0828 E-score; with AAGCTGTA, 0.0695 E-score. With GACGTAAA the figure was 0.0779 E-score; with ATCCTACA, 0.175 E-score; with ACGGAACC, -0.00314 E-score. With TACAGGGA the figure was -0.148 E-score. In the case of CAACGTCA, the binding signal came out at 0.0363 E-score. In the case of ATCGTGGC it was -0.0292 E-score. In the case of GATTTACC it was 0.275 E-score. With GAGACATA the figure was -0.0183 E-score; with CGCTCTGA, -0.0888 E-score.

In the case of CATCACAA, the binding signal came out at 0.122 E-score. In the case of CGCATCGA it was 0.0566 E-score; in that of CTCAGACC, -0.297 E-score. Sequence AGGTGTGA had a binding signal of -0.0745 E-score. Regarding GCCTCCGC, the binding signal was -0.196 E-score. In the case of TATCGATA it was 0.376 E-score; in that of AGGCAACT, -0.0745 E-score; in that of GGAAGGAA, -0.229 E-score. With CGGCTATA the figure was 0.0583 E-score; with CCCGCAAA, -0.115 E-score; with CCATATGG, -0.182 E-score. Turning to ATGTGCGA, the binding signal is -0.00406 E-score.

With CTAGTACA, the binding signal was 0.291 E-score. In the case of GACACGGC it was -0.102 E-score; in that of TATTTTGA, 0.267 E-score. CACTCACC had a binding signal of 0.177 E-score. In the case of AGCAAGGG it was -0.209 E-score. With CGGGTTCA the figure was -0.29 E-score; with ATCGGACA, 0.0141 E-score; with ACCAGGAT, -0.148 E-score. With AGCTAGCA, the binding signal worked out at 0.204 E-score. In the case of ACAGTCCG it was -0.114 E-score; in that of GTAGGCCA, 0.0362 E-score. In the case of CAGGGTTC it was -0.172 E-score; in that of GTCTACAC, -0.0482 E-score.

Sequence CTGGCATC registered a binding signal of -0.116 E-score. In the case of AGGACAGA it was -0.147 E-score; in that of TGATAGAA, 0.388 E-score. With CGCACGCA the figure was -0.227 E-score; with GTCGCGAC, -0.0623 E-score. In the case of CGCTGTAA it was 0.112 E-score; in that of AACGCCCG, -0.18 E-score. On to AAATTCGG, for which the binding signal stood at 0.0315 E-score. In turn, ATCTATAA came in with a binding signal of 0.307 E-score.

The sequence GTCCAGTA displayed a binding signal of 0.115 E-score. With ATAGATCG the figure was 0.138 E-score; with ACGTGTAC, -0.0515 E-score; with GGCGATTA, 0.00681 E-score.

As to ACGGAACA, the binding signal was -0.0853 E-score. On to GGAGGTAC, for which the binding signal amounted to 0.04 E-score. With AACGGATA the figure was 0.0821 E-score; with CAAATAAG, -0.0595 E-score. In the case of CGCCGTTA it was -0.0867 E-score; in that of ACACATAC, 0.248 E-score; in that of CTTCATGA, -0.197 E-score. With CACTCCTA the figure was 0.0224 E-score. In turn, ATCAGTTG had a binding signal of 0.124 E-score. Consider GATTAGAA, for which the binding signal was -0.0372 E-score. In the case of CACGCAAG it was -0.208 E-score; in that of ACCGAGGA, -0.292 E-score; in that of GCCGGTTA, -0.184 E-score. With ACCATCAT the figure was -0.0574 E-score. AACCGCTG showed a binding signal of -0.326 E-score. In the case of ACACAGTG it was 0.151 E-score; in that of CTCTTGAA, -0.306 E-score; in that of ACGCGAGG, -0.139 E-score. With CGCACGAA, the binding signal was -0.00623 E-score. In the case of ACATTGTC it was -0.0121 E-score; in that of AGGTGAAG, -0.0865 E-score. In the case of TCAATTCA it was 0.0998 E-score. In the case of AACGATAG it was 0.224 E-score; in that of AGAGATAG, 0.112 E-score. CATACCGG gave a binding signal of 0.00723 E-score.

In the case of CAGGAAAA, the binding signal is -0.0418 E-score. Consider GCCTTAAA, for which the binding signal was -0.232 E-score. With CAATGCAC the figure was 0.0285 E-score; with AAGTCTGT, -0.0469 E-score. In the case of AAAAAGGC it was -0.0191 E-score; in that of AGATTGAA, 0.0809 E-score. With ACCTATAC the figure was 0.266 E-score. For the sequence TCTTTCAA, the binding signal is -0.0586 E-score.

With CCGGCCAG, the binding signal was -0.278 E-score. Turning to GAGCGATA, the binding signal stood at 0.0162 E-score. In the case of TGTGATAA it was 0.153 E-score; in that of AGGAGAGG, -0.177 E-score; in that of GCCCTCCC, -0.391 E-score. With AAGATTAA the figure was 0.221 E-score; with CGCGCACC, -0.235 E-score. Regarding CAAGCAAC, the binding signal is -0.165 E-score. With CCATCGGC the figure was -0.173 E-score; with AACGGGCG, -0.0452 E-score.

In the case of CGCCGGTC, the binding signal is -0.208 E-score. With CACGCTTA the figure was -0.0251 E-score. With AGGGGTAT the figure was -0.14 E-score; with ACACATCG, -0.0192 E-score; with CTTCCTCA, -0.215 E-score. With CAGATTCG, the binding signal was 0.0798 E-score. In the case of CCGACCCC it was -0.485 E-score; in that of CGGCAGTC, -0.237 E-score; in that of TCGCGACA, -0.172 E-score. With TAGCTATA the figure was 0.346 E-score; with AAGATATA, 0.313 E-score; with CGTGCCCC, -0.303 E-score.

Consider GAGATAAC, for which the binding signal is 0.228 E-score. With GTGTACGA the figure was 0.0388 E-score. With TCTTGTAA the figure was 0.0517 E-score; with AGCCATCG, -0.115 E-score; with AGGCCCTC, -0.392 E-score. For the sequence TATATGAA, the binding signal turned out to be 0.262 E-score. In the case of GCCTGGAA it was -0.142 E-score; in that of AGAAGACC, -0.3 E-score; in that of CTATTTGC, 0.129 E-score.

With AACGCACA, the binding signal was -0.0514 E-score. With AAGCCCTA the figure was -0.226 E-score; with AACCTGTA, 0.128 E-score; with AGTGCGGG, -0.138 E-score. In the case of CGCGGGAC it was -0.416 E-score; in that of ATCGTCTA, 0.134 E-score; in that of CCGTCACG, -0.0865 E-score. Turning to CTGCTTGC, the binding signal is -0.129 E-score. As to AATTACTC, the binding signal was 0.26 E-score. With AAGCCTGC the figure was -0.315 E-score. In the case of AGTATAAG it was 0.239 E-score; in that of ACTTGAGG, -0.00692 E-score; in that of TGTCTTAA, 0.00769 E-score. The sequence CCGAGCCA gave a binding signal of -0.164 E-score. In the case of ACCTTCGG it was -0.234 E-score; in that of GCCCACGC, -0.27 E-score; in that of GTTCGTAA, 0.034 E-score. The sequence AGTTAACG displayed a binding signal of 0.254 E-score.

CATAATCA showed a binding signal of 0.164 E-score. Sequence CCAGGCGA had a binding signal of -0.177 E-score.

The sequence TCATACCA registered a binding signal of 0.0971 E-score.

In turn, ACGACCCT came in with a binding signal of -0.215 E-score. With ATTTCGCG the figure was 0.118 E-score.

As for GCATGTAC, the binding signal turned out to be 0.0911 E-score. In turn, AGCCGGTA returned a binding signal of -0.082 E-score. In the case of AACCGTGC it was -0.179 E-score. Sequence AGGTTTTA yielded a binding signal of 0.0648 E-score.

The sequence GACTGGAC showed a binding signal of -0.134 E-score. In the case of TGTAGCAA it was 0.217 E-score; in that of AGGGTGTA, -0.0212 E-score; in that of TAGATGCA, 0.191 E-score. In the case of ACGGACCC it was -0.272 E-score; in that of AGCTCGGA, -0.0137 E-score; in that of AAGAATGG, -0.00549 E-score. Consider TAATGAAA, for which the binding signal came to 0.0595 E-score.
